Test results reported in PubChem BioAssay AID445 (National Center for Advancing Translational Sciences (NCATS), 2006).
Hit rate of the full screen: of about 110,000 compounds, about 40 (0.04%) were called active. This list was built around the results that the source calls inconclusive (neither active nor inactive); the mix of calls is not that of the screen. The call rests on the fitted dose curve; in most records, active means well fitted curve in the direction sought with a large enough effect in the signal ratio (not every such curve was filed as active); inconclusive means small, poorly fitted or top-dose-only effect, or a change in a side signal; inactive means flat fitted curve, though single readings scatter; the % refers to the signal ratio. A potency beside an inconclusive call is a rough fit, not a confirmed value.

assay: IkB Signaling; conditions: ABC-DLBCL IkBa-CBG/CBR dual luciferase ratio (green luciferase fused to IkBa over red control in OCI-Ly3 lymphoma cells), 4 h; IkBa stabilization activation: at 57.1 µM (top of the series), scaled: untreated 0%, proteasome inhibitor 100% unless noted
From the text: NIH Molecular Libraries Screening Centers Network [MLSCN]
NIH Chemical Genomics Center [NCGC]
Nuclear factor kappa-B (NF-kappa-B) plays an important role in normal B cell development and survival. Diffuse large B cell lymphoma (DLBCL) is the most commonly observed type of non-Hodgkin's lymphoma. Gene expression analysis has identified an activated B cell-like subtype of DLBCL (ABC-DLBCL) which expresses known NF-kappa-B target genes. […] However, targets upstream of IKK have been largely unexplored and so nodes upstream of IKK in the NF-kappa-B pathway remain untested due to the lack of chemical probes.
A cell-sensor assay for I-kappa-B-alpha stabilization was developed with NIH investigator Dr. R. Eric Davis in Dr. Louis M. Staudt's laboratory. The assay uses green (CBG68) and red (CBR) emitting beetle luciferases [Chroma-Glo(TM) developed by Promega Corp.] where the green luciferase is fused to I-kappa-B-alpha and the red luciferase is present in its native state. Both luciferase genes are stably present in the OCI-Ly3 human ABC DLBCL cell line, but their expression is under the control of tetracycline-inducible promoters. Following the addition of doxycycline to induce expression of the luciferases, the green luminescence in control cultures rises only slowly because the CBG fusion partner I-kappa-B-alpha is targeted by IKK activity for rapid degradation. In contrast, green luminescence rises rapidly in the presence of proteasome inhibitors or IKK inhibitors. The rise in red luminescence of CBR is not affected by proteasome or IKK inhibitors, and serves as normalization for cell number and nonspecific effects. Compounds were screened as a concentration-titration series that ranged from 57 uM to 0.7 nM.
NCGC Assay Protocol Summary:
Cells were seeded in 1536-well plates at 5000 cells/3ul in IMDM medium containing 0.5% FBS, w/o phenol red, L-glutamine, 25 mM HEPES, 3 mg/ml sodium bicarbonate. After centrifugation for 1 min. at 1000 rpm, 23 nl of compounds or DMSO were delivered to each well using a pin tool. Then 1ul 80ng/ml doxycycline was dispensed into white solid 1536-well plates and the plates were incubated at 37C/5% C02 in a cell incubator for 4 hrs. Then 4 ul Chroma-Glo luminescent substrate mix (Promega) was added to each well. The plate was incubated at R.T. for 10-15 min. The plates were measured on a ViewLux plate reader for green luminescence (540/20 nm filter) and red luminescence (618/8 nm filter). The green and red luminescent signals were corrected for red and green luminescence filter overlap using previously determined filter calibration constants (determined using the procedure outlined in the Promega Technical Manual). The %Activity was determined from the ratio of corrected green/red luminescent values. Green luminescent and ratio %Activity was determined by normalizing to the difference in signal between basal cells (0% Activity) and cells incubated with 10 uM of the proteasome inhibitor MG-132 (100% Activity). Red luminescent %Activity was normalized to the difference between red luminesence in basal cells (0%Activity) and zero luminescence (-100% Activity).
Concentration-response curves were fitted to the signals arising from the green luminescence (I-kappa-B-alpha-luciferase fusion; IkB-luc) and the red luminescence (unfused luciferase; luc) as well as the calculated ratio. The concentration-effect curves were then classified based on curve quality (r2), response magnitude and degree of measured activity. Compounds were then categorized based on their concentration-response curves for all three datasets (Ikb-luc, luc and ratio).
Keywords: IKK, I-kappa-B, IkB, IkBa, cytotoxicity, luminescence, MLSMR, MLSCN, NIH Roadmap, qHTS, NCGC
Potency means the concentration at half of the fitted maximal effect.

SMILES | IkBa stabilization activation | Potency
Cc1ccc(-n2ncc(C(=O)N3CCN(C(=O)c4ccco4)CC3)c2C2CCN(C(=O)OC(C)(C)C)CC2)cc1 | inconclusive: -1.43% [signal inhibitor] | –
CC(C)c1ccc(NC(=O)CCNS(=O)(=O)c2ccc3c(c2)oc(=O)n3C)cc1 | inconclusive: 2.1% [signal inhibitor] | –
CC(=O)N(CCP(=O)(c1ccccc1)c1ccccc1)Cc1ccco1 | inactive | –
CCOc1ccc(OCC)c(Nc2cc(C)nc3nc(C)nn23)c1 | inactive | –
O=C(Nc1ccccc1)N(O)c1ccc(Cl)cc1 | inactive | –
COc1cc(OC)c(-c2nn3c(C4CCCCC4)nnc3s2)cc1OC | inactive | –
O=C(c1ccc2c(c1)N(Cc1cccc(Cl)c1)C(=O)c1ccccc1S2(=O)=O)N1CCCCCC1 | inconclusive: 1.54% [signal inhibitor] | –
Cc1nn2c(=O)cc(COC(=O)C(c3ccccc3)c3ccccc3)nc2s1 | inactive | –
Cc1ccc2c(c1)N(C(=O)N1CCC(C(=O)NCc3cccs3)CC1)CC(C)O2 (configuration not stated) | – | inconclusive: 25.1 µM [signal inhibitor, partial curve]
Cc1ccc(SCC(=O)N(Cc2nc(-c3ccccc3)no2)C(C)C)cc1 | inconclusive: 6.74% [signal inhibitor] | –
CC(C)C[C@H]1C(=O)N2CCC[C@@H]2[C@]2(O)O[C@](NC(=O)[C@@H]3C=C4c5cccc6[nH]c(Br)c(c56)C[C@H]4N(C)C3)(C(C)C)C(=O)N12 | inconclusive: 1.3% [signal inhibitor] | –
c1ccc(-c2cnc(-c3ccc(-c4ncc(-c5ccccc5)o4)cc3)o2)cc1 | inactive: 0.55% [at 11.4 µM, scaled: untreated 0%, proteasome inhibitor 100%] | –
Cc1oc(C(C)(C)C)cc1C(=O)Nc1ccc2c(c1)OCCO2 | inconclusive: 3.49% [signal inhibitor] | –
Cc1ccc(-c2c(C(=O)N(C)Cc3ccccc3)oc(=O)c3ccccc23)cc1 | inconclusive: 1.94% [signal inhibitor] | –
c1ccc(-c2ccc(N3CCCC4(CCNCC4)C3)cc2)cc1 | inactive: 4.96% [at 11.4 µM, scaled: untreated 0%, proteasome inhibitor 100%] | –
CC(=O)OC(C)(C)N=Nc1ccc(Br)cc1 | inactive: 0.138% [at 11.4 µM, scaled: untreated 0%, proteasome inhibitor 100%] | –
O=c1oc2c(O)c(O)cc3c(=O)oc4c(O)c(O)cc1c4c23 | inactive: 1.8% [at 11.4 µM, scaled: untreated 0%, proteasome inhibitor 100%] | –
COc1ccccc1NC(=O)C1=C(C)Nc2c(C(=O)Nc3cccc(C)c3)cnn2C1c1ccccc1C (configuration not stated) | inconclusive: 2.79% [signal inhibitor] | –
Cc1ccc(/C=C/c2nc3ccccc3n2S(=O)(=O)c2cccc(Cl)c2)cc1 | – | inconclusive: 31.6 µM [signal inhibitor, single point]
COc1ccc(S(=O)(=O)Cc2ccc(C(=O)N3CCN(c4cc(Cl)ccc4C)CC3)o2)cc1 | inconclusive: 6.45% [signal inhibitor] | –
Nc1nc(N2CCOCC2)nc(N(c2ccccc2)c2ccccc2)n1 | inactive | –

SMILES | IkBa stabilization activation | Potency
CCOC(=O)c1ccc(NC(=O)Cn2cc(C(=O)c3cccs3)c3ccccc32)cc1 | inconclusive: 2.66% [signal inhibitor] | –
CC(=O)c1ccc(N2CCN(C(=O)c3cc(-c4ccc5c(c4)OCO5)nc4ccccc34)CC2)cc1 | inactive | –
COc1cc2nc(Nc3ccc(C)c(C)c3)nc(N)c2cc1OC | inconclusive: -11.5% [signal inhibitor] | –
Cc1nc2ccn(Cc3cccs3)c(=O)c2cc1C(=O)NCc1ccc(Cl)cc1 | inconclusive: 2.93% [signal inhibitor] | –
Cc1noc(C)c1C(=O)N1CCC2(CC1)CN(c1cccc(-c3ccccc3)c1)C2 | inactive: 7.14% [at 11.4 µM, scaled: untreated 0%, proteasome inhibitor 100%] | –
COc1ccc(-n2nnnc2S(=O)(=O)Cc2ccc(C(=O)O)cc2)cc1 | inconclusive: -1.79% [signal inhibitor] | –
CCCCOC(=O)c1c(C)oc2ccc(NS(=O)(=O)c3ccc(F)cc3C)cc12 | inconclusive: 10.3% [signal inhibitor] | –
NC(N)=NC(=O)c1nc(Cl)c(N)nc1N | inactive | –
N#CCSc1nc2scc(-c3cccs3)c2c(=O)n1CCc1ccccc1 | inactive | –
Cn1c(C(=O)N2CCCC(C(=O)N3CCN(c4ccccc4)CC3)C2)cc2sccc21 (configuration not stated) | inconclusive: -0.258% [signal inhibitor] | –
Cc1cccc(OC(C)C(=O)Nc2ncn[nH]2)c1 (configuration not stated) | inactive | –
CCC(=O)Nc1nc2c(OC)ccc(OC)c2s1 | inconclusive: -0.229% [signal inhibitor] | –
CCc1ccc(NC(=O)c2ccc3c(O)c(S(=O)(=O)c4ccc(Cl)cc4)c(=O)[nH]c3c2)cc1 | inconclusive: -0.797% [signal inhibitor] | –
COCc1cc(=O)n2c([nH]c3ccccc32)c1C#N | – | inconclusive: 15.8 µM [signal inhibitor, partial curve]
Cc1ccc(C)c(NC(=O)CN2C(=O)CCc3ccccc32)c1 | inactive | –
CCN(CC)c1cc(C)c2cc(NC(=O)c3cccc(OC)c3)ccc2n1 | inconclusive: 9.33% [signal inhibitor] | –
Cc1ccccc1CN1CCN(S(=O)(=O)c2ccc(F)cc2)CC1 | inconclusive: 6.31% [signal inhibitor] | –
CCOC(=O)C1CCCN(S(=O)(=O)c2ccc(F)c(C(=O)Nc3ccc(F)c(F)c3)c2)C1 (configuration not stated) | inconclusive: 3.24% [signal inhibitor] | –
COC(=O)C(NC(=O)CC(C)C)(Nc1nc2c(s1)CCCC2)C(F)(F)F (configuration not stated) | inconclusive: 0.614% [signal inhibitor] | –
c1cn(CCCNc2ncnc3nc[nH]c23)cn1 | – | inconclusive: 7.94 µM [signal inhibitor, partial curve]
N#Cc1cccc(-c2nc3cnc(N4CCOCC4)nc3n(C[C@H]3CCCO3)c2=O)c1 | inactive: 0.767% [at 11.4 µM, scaled: untreated 0%, proteasome inhibitor 100%] | –
